# Results published in PubChem BioAssay AID686979 (National Center for Advancing Translational Sciences (NCATS), 2013).
# Several values for one entry are separate records, joined by “and”; a condition that tells them apart may be missing. Equal entries are not always repeated. Hit rate of the full screen: of about 420,000 compounds, about 50,000 (12%) were called active. This list was built around the results that the source calls inconclusive (neither active nor inactive); the mix of calls is not that of the screen. Calls follow the shape of the dose curve; as a rule, active = well fitted inhibition curve with a large enough effect; inconclusive = small, poorly fitted or top-dose-only effect; inactive = flat fitted curve, though single readings scatter. Potencies beside an inconclusive call are fits to weak or partial responses and may not hold up.
# Assay: qHTS for Inhibitors of human tyrosyl-DNA phosphodiesterase 1 (TDP1): qHTS in cells in presence of CPT; also: nearly all actives have a fitted effect of over 55% in size
# Settings: chicken DT40 Tdp1-/-;hTDP1 cells + 20 nM CPT, ATP luminescence, 48 h; activity change, negative = growth inhibition: at 46.2 µM (top of the series)
# Outline: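 Cell growth measured by CellTiter-Glo luminescence after a minimum 48 h, 37 C compound exposure with 20 nM CPT in Tdp1-knockout DT40 cells stably expressing hTDP1, seeded 400/well; qHTS titration format.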
# % is scaled to controls: 0 for no effect and ±100 for the full control effect; potency is read from the fitted curve at half-maximal effect; tags tell the direction and shape of the fitted curve.
SMILES,"activity change, negative = growth inhibition",Potency
Clc1ccc(C=NNc2ccccn2)c(Cl)c1,inactive: 0.43%,
CCOC(=O)c1cc(-c2ccc(OC)cc2)n(CCC(=O)NC2CCN(Cc3ccccc3)CC2)c1C,,"inconclusive: 25.9 µM [inhibitor, single point]"
O=C(CSc1nnnn1-c1ccccc1)Nc1ncc2c(n1)CC(c1ccco1)CC2=O (stereo not drawn),,"inconclusive: 2.06 µM [inhibitor, full curve, poor fit]"
CCOC(=O)C1(Cc2ccccc2C)CCCN(C(=O)CCC(=O)OC)C1 (stereo not drawn),,"inconclusive: 23.1 µM [inhibitor, single point]"
Cc1ccc(-c2c3c(=O)n(C)c(=O)n(C)c3cn2-c2cc(C)ccc2O)cc1,,"inconclusive: 16.4 µM [inhibitor, single point]"
Cc1c(C(=O)NCCSc2ccc(Cl)cc2)cccc1[N+](=O)[O-],inactive: -14.4%,
Cc1ccc(S(=O)(=O)c2ccc(Oc3ccccc3)cc2)cc1,,"inconclusive: 25.9 µM [inhibitor, single point]"
O=C(NCC1CCCO1)c1ccccc1-c1nc(-c2ccccc2Cl)no1 (stereo not drawn),,"inconclusive: 23.1 µM [inhibitor, single point]"
Cc1ccccc1OCC(=O)NNC(=O)C1CC(=O)N(c2ccc3c(c2)OCCO3)C1 (stereo not drawn),,"inconclusive: 23.1 µM [inhibitor, single point]"
CCC/C(O)=C1\C(=O)CCCC1=NCCc1c(C)[nH]c2ccc(C)cc12,,"inconclusive: 16.4 µM [inhibitor, single point]"
CN(C)c1ccc(-c2ccnc3c2CC(C)(C(=O)NCCC(F)(F)F)O3)cc1 (stereo not drawn),,active: 7.31 µM
O=C(NCc1ccccc1)c1ccc(CS(=O)(=O)Cc2ccccc2F)o1,inactive: -38.2%,
Cc1cc(O)c(/C=N/OCc2ccc(Cl)cc2Cl)c(=O)o1,,active: 14.6 µM
CCNC(=O)C1(C)CCN1CCC(=O)c1ccc(Br)cc1 (stereo not drawn),,active: 20.6 µM
CC12CCC(C(=O)Nc3cccc(Cl)c3Cl)([C@H](Br)C1=O)C2(C)C (stereo partly drawn),,"inconclusive: 29.1 µM [inhibitor, single point]"
CC(C1CC2CCC1C2)n1c(-c2cccs2)n[nH]c1=S (stereo not drawn),,"inconclusive: 29.1 µM [inhibitor, single point]"
O=C1C2C3CCCC3=C3CCCC3C2C(=O)N1c1ccc(F)cc1 (stereo not drawn),,"inactive and inconclusive: 25.1 µM [inhibitor, single point]"
CC1(C)CC(=O)C=C(/C=C/c2ccccc2)C1,,active: 23.1 µM
CCNc1nc(NCC)n2c(SC(C(=O)Nc3cc(C)ccc3OC)c3ccccc3)nnc2n1 (stereo not drawn),,"inconclusive: 25.9 µM [inhibitor, partial curve, poor fit]"
CCOC(=O)[C@]12CCCC=C1N(CCC1=CCCCC1)C(=O)[C@H](CC(=O)NCc1cccs1)C2,,"inconclusive: 25.9 µM [inhibitor, single point]"
Cc1cc(N2CCOCC2)nc2ccc(NC(=O)CCC(=O)N3CCN(c4cccc(C(F)(F)F)c4)CC3)cc12,,active: 4.11 µM
CC(C)c1ccc(NC(=O)N2CCc3nc(NCc4cccc(Oc5ccccc5)c4)ncc3C2)cc1,,"inconclusive: 29.1 µM [inhibitor, single point]"
Cc1cc(Cl)ccc1NS(=O)(=O)c1ccc2c(c1)CC(C)N2C(=O)C1CCC1 (stereo not drawn),,active: 18.4 µM

SMILES,"activity change, negative = growth inhibition",Potency
S=C(NCc1cccnc1)Nc1ccc(Oc2ccccc2)cc1,,"inconclusive: 25.9 µM [inhibitor, single point]"
Cc1ccc(-c2nn(-c3ccc(F)cc3)cc2C(=O)N(C)CC(=O)Nc2ccc(N3CCOCC3)cc2)cc1,,"inconclusive: 18.4 µM [inhibitor, partial curve]"
CCN1C(=O)[C@H]2[C@H]3CN=C(SCC(=O)c4ccccc4)N3[C@@](CC)(C(=O)OC)[C@H]2C1=O,,"inconclusive: 29.1 µM [inhibitor, single point]"
O=C1CC(c2nc(-c3ccccc3)no2)CN1c1ccc2c(c1)OCCO2 (stereo not drawn),inactive: -9.64%,
COC(=O)C1CCN(C(c2ccccc2)c2sc3nc(-c4ccco4)nn3c2O)CC1 (stereo not drawn),inactive: 9.13%,
O=C1[C@H]2[C@@H](c3ccc(F)cc3)N3C(=O)N(c4ccccc4)C(=O)[C@@]3(Cc3ccccc3)[C@H]2C(=O)N1C1CCCCC1,inconclusive: -18.5% [inhibitor],
Cc1c(Cl)cccc1-n1ncc(C(=O)Nc2ccc(F)cc2F)c1C1CCN(C(=O)OC(C)(C)C)CC1,,"inconclusive: 14.6 µM [inhibitor, single point]"
Cc1ccc(Cn2cc(S(=O)(=O)c3ccc(C)cc3)c(=O)c3cc(F)c(N4CCCC4)cc32)cc1,,"inconclusive: 3.26 µM [inhibitor, partial curve]"
O=C(COc1ccccc1)Nc1cc(S(=O)(=O)N2CCOCC2)ccc1N1CCCC1,inactive: -18.7%,
CC(=O)c1cccc(NC(=O)CN2C(=O)c3cccnc3Oc3ccc(Cl)cc32)c1,,active: 18.4 µM
CCCCCCCn1c(NC(=O)CC)nc2ccccc21,,"inconclusive: 20.6 µM [inhibitor, single point]"
Cc1nnc2c3ccccc3c(-c3cccs3)nn12,inactive: -8.58%,
COc1ccc(C#Cc2ccc(C3=CC(=O)CC(C)(C)C3=O)cc2)cc1,,"inconclusive: 29.1 µM [inhibitor, single point]"
C/C=C/c1ccc(OCCCNCC(C)O)c(OC)c1 (stereo not drawn),,"inconclusive: 29.1 µM [inhibitor, single point]"
COc1cc(C(=O)NCCNc2nc3ccc(C)cc3cc2C#N)cc(OC)c1OC,inactive: -14.3%,
COc1cccc(Nc2nc(-c3ccc4c(c3)OCCO4)cs2)c1,,"inconclusive: 20.6 µM [inhibitor, single point]"
Cc1nc(-c2cc(-c3nc(-c4ccc(C(C)(C)C)cc4)no3)no2)cs1,,"inconclusive: 14.6 µM [inhibitor, partial curve]"
Cc1ccc(CNC(=O)C2CCN(C(=O)c3cnn(-c4ccccc4)c3-n3cccc3)CC2)cc1,,active: 11.6 µM
CCn1c2ccccc2c2cnc(N=CN(C)C)c(C#N)c21,,"inconclusive: 20.6 µM [inhibitor, single point]"
CCOc1cccc(NC(=O)c2ccc(F)c(S(=O)(=O)N(CC)c3cccc(C)c3)c2)c1,,active: 18.4 µM
Cc1ccc(S(=O)(=O)Nc2ccccc2F)cc1C(=O)OC(C)C(=O)N1CCOCC1 (stereo not drawn),inactive: 7.24%,
O=C1OC(c2ccccc2)Cc2cc(C(=O)N3CCN(c4ccc(F)cc4)CC3)ccc21 (stereo not drawn),,active: 18.4 µM
COc1cccc(-c2cc(C(F)(F)F)n3ncc(C(=O)NCC4CCCO4)c3n2)c1 (stereo not drawn),,"inconclusive: 18.4 µM [inhibitor, single point]"

SMILES,"activity change, negative = growth inhibition",Potency
CCC(C)NC(=O)CN(c1cc(C)cc(C)c1)S(=O)(=O)c1c(C)[nH]c(=O)[nH]c1=O (stereo not drawn),inactive: -7.28%,
O=C1c2cccc3c(Nc4ccccc4Cl)c([N+](=O)[O-])cc(c23)C(=O)N1CCO,,"inconclusive: 23.1 µM [inhibitor, single point]"
O=C(Nc1cc(Cl)cc(Cl)c1)c1ccc(Cn2c(=O)[nH]c3ccsc3c2=O)cc1,,"inconclusive: 29.1 µM [inhibitor, single point]"
Cc1cnc(C(=O)Nc2ccc(N3CCCCC3)cc2)cn1,,"inconclusive: 16.4 µM [inhibitor, single point]"
CC1CN(CC(O)COC2CCC(C(C)(C)C)CC2)CC(C)O1 (stereo not drawn),,"inconclusive: 29.1 µM [inhibitor, single point]"
CCOc1ccc(NC(=O)/C(C#N)=C/c2ccc(N3CCCC3)c(C)c2)cc1,,"inconclusive: 8.2 µM [inhibitor, partial curve]"
CCOC(=O)N1CCC(NC(=O)C2CCN(C(=O)c3cc4sccc4n3CC)CC2)CC1,,"inconclusive: 18.4 µM [inhibitor, single point]"
COc1ccc2c(c1)c1c(c(=O)n(Cc3ccccc3)c(=O)n1CC(=O)Nc1ccc(C)cc1C)n2C,inactive: 2.69%,
CC(C)(C)OC(=O)C[C@@H]1C/C=C\C[C@@H](CC(=O)N(CCO)Cc2ccccc2)C(=O)NC[C@H](c2ccccc2)OC1=O,,active: 11.6 µM
CC(C)NC(=O)CN1CCN(C(=O)CCl)CC1,inactive: 1.87%,
CCCCOC(=O)c1sc2nc(C)cc(C)c2c1N,,"inconclusive: 18.4 µM [inhibitor, single point]"
Cc1cc(OCCCCn2ccnc2)cc(C)c1Cl,,active: 18.4 µM
O=c1c2ccccc2sc2nc(C3CCCCC3)n(Cc3ccco3)c(=O)c12,,"inconclusive: 20.6 µM [inhibitor, single point]"
CCCOc1ccc(S(=O)(=O)N2C(=O)CC(=O)N(Cc3ccc(OCC)cc3)C2=O)cc1,inactive: -3.3%,
COc1ccc(C)cc1NC(=O)Cn1c(=O)oc2cc(S(=O)(=O)NCc3ccccc3)ccc21,,active: 16.4 µM
N#Cc1ccc(Sc2ccccn2)c([N+](=O)[O-])c1,,"inconclusive: 29.1 µM [inhibitor, single point]"
CCCCN1C(=O)N(c2ccccc2Cl)C(C)(O)CC1(C)C (stereo not drawn),inactive: -14%,
O=C(CCc1ccccc1)N=C1SC2CS(=O)(=O)CC2N1c1ccccc1 (stereo not drawn),inactive: 2.85%,
COc1cc(NC(=O)c2cc(-c3ccccc3)on2)cc(OC)c1OC,,"inconclusive: 18.4 µM [inhibitor, single point]"
CCOC(=O)c1ccc(CN(Cc2ccc(C)cc2)S(=O)(=O)c2ccc(NC(C)=O)cc2)cc1,,"inconclusive: 20.6 µM [inhibitor, single point]"
CCOC(=O)Cc1csc(NC(=O)c2cc(C)c(C)s2)n1,,"inconclusive: 29.1 µM [inhibitor, single point]"
CSc1cccc(NC(=O)C2CCN(S(=O)(=O)c3ccc4[nH]c5c(c4c3)CCCCC5)CC2)c1,,"inconclusive: 29.1 µM [inhibitor, single point]"
